# From PubChem BioAssay AID651820 (National Center for Advancing Translational Sciences (NCATS), 2012)
# Screen size: about 340,000 compounds; about 12,000 (3.5%) were called active. Inconclusive means that the source gave no clear call. Such entries were picked first, then a sample of the others. Calls follow the shape of the dose curve; as a rule, active = well fitted inhibition curve with a large enough effect; inconclusive = small, poorly fitted or top-dose-only effect, or another doubt; inactive = no such curve, though single readings can be large or run the other way. No potency is given beside an inconclusive call; the fits are too rough.
# Test: qHTS Assay for Inhibitors of Hepatitis C Virus (HCV)
# Settings: Huh7.5.1 HCVcc-Cre (HCVcc is cell-culture hepatitis C virus) infection, luciferase reporter, 44 h; activity change, negative = inhibition: at 41.8 µM (top of the series) unless noted
# How it was run: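 1,000 cells/well; 4 h culture; + compound; + HCVcc-Cre (~0.5 moi); 44 h; luciferase substrate, RT 15 min; read 15 sec.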
# % is scaled to controls: 0 for no effect and ±100 for the full control effect; potency is read from the fitted curve at half-maximal effect; tags tell the direction and shape of the fitted curve.
Structure (SMILES),Potency,"activity change, negative = inhibition"
CCN(Cc1ccccc1)C(=O)c1cccc(OC2CCN(C(=O)C3CC3)CC2)c1,"inconclusive [inhibitor, single point]",
O=C(Cc1cccc2ccccc12)Nc1ccccc1Br,,inactive: 7%
S=C(Nc1ccc(Br)cc1Cl)NC1CCN(Cc2ccccc2)CC1,"inconclusive [inhibitor, partial curve]",
O=C(CCc1ccccc1)NC1(Cc2ccccc2)CCN(CCc2cccs2)C1=O (centres undefined),"inconclusive [inhibitor, partial curve]",
O=C(/C=C/c1ccc(Br)cc1)NC(=S)NNC(=O)c1ccco1,"inconclusive [inhibitor, partial curve, poor fit]",
CCS(=O)(=O)N1CCCC(C(=O)c2ccc(OC)cc2C)C1 (centres undefined),"inconclusive [inhibitor, single point]",
FC(F)(F)c1cnc(Oc2ccccc2-c2nnc(-c3ccc(Cl)cc3)o2)c(Cl)c1,"inconclusive [inhibitor, partial curve]",
CCOC(=O)C(C)N1C(=O)S/C(=C/c2cc(C)n(-c3ccncc3)c2C)C1=O (centres undefined),active: 10 µM,
CCOc1cc(CNCCN2CCOCC2)ccc1OCc1ccccc1Cl,active: 2.82 µM,
COc1ccccc1NCC(O)Cn1c2ccccc2c2ccccc21 (centres undefined),"inconclusive [inhibitor, partial curve]",
CC(C)n1cc(CN2CCCC(C(=O)Nc3cccc(-c4cc5ccccc5[nH]4)c3)C2)cn1 (centres undefined),active: 11.2 µM,
O=C(CSc1nc2ccccc2o1)c1cc2ccccc2oc1=O,,inactive: -6.05%
Cc1cccc(Oc2ccccc2NC(=O)CSCC(=O)Nc2cc(C)on2)c1,"inconclusive [inhibitor, single point]",
CCN(CC)CCN1C(=O)c2oc3ccccc3c(=O)c2C1c1ccc(F)cc1 (centres undefined),inactive,
N#Cc1ccc(NC(=O)COC(=O)c2cccnc2Cl)cc1,,inactive: 23.2%
CNc1oc(-c2ccc(OCc3ccccc3)cc2)nc1C#N,"inconclusive [inhibitor, single point]",
Nc1ccc2nc(-c3ccc(Cl)cc3)[nH]c2c1,,inactive: -15.9%
COc1ccc(CCN(C)C(=O)CSc2nnc(C3CC3)n2N)cc1OC,"inconclusive [inhibitor, full curve, poor fit]",
O=C(C[n+]1ccccc1)N/N=C/c1ccc(C(=O)O)cc1,,inactive: 18.9%
COc1ccc(-n2cnnc2SCC(=O)N2CCN(c3ccccc3)CC2)cc1,,inactive: -8.39%
CCc1cccc2c(C(=O)CN3C(=O)N(C)C4(CCCCC4)C3=O)c[nH]c12,active: 7.08 µM,
COc1ccc(S(=O)(=O)N2CCN(C(=O)c3cc(-c4ccc(Br)cc4)n[nH]3)CC2)cc1OC,"inconclusive [inhibitor, single point]",
CCSC1=N/C(=C\c2ccc(C(=O)O)cc2)C(=O)S1,,inactive: 18.6%

Structure (SMILES),Potency,"activity change, negative = inhibition"
C=CC[C@@H](CC(=O)N[C@H](CO)Cc1ccccc1)C(=O)N[C@H](COC(=O)[C@@H](CC=C)Cc1ccc(F)cc1)C(C)(C)C,"inconclusive [inhibitor, single point]",
Cc1sc2ncnc(SCC(=O)NC(=O)c3cccn3C)c2c1C,"inconclusive [inhibitor, full curve, poor fit]",
CCOc1ccc(CSC(=N)N)cc1[N+](=O)[O-],"inconclusive [inhibitor, single point]",
COc1ccc(NC(=O)c2cc(-c3ccncc3)nc3ccccc23)c(OC)c1,"inconclusive [inhibitor, single point]",
CCOC(=O)C1C(=O)C=C(c2ccc(C)cc2)CC1c1cccc([N+](=O)[O-])c1 (centres undefined),"inconclusive [inhibitor, single point]",
CCOc1ccccc1NC(=O)CSc1nnc2c(CC)c(C)nc(N)n12,,inactive: 15%
O=C(Nc1cccc(S(=O)(=O)N2CCCCCC2)c1)c1cc(=O)c2ccccc2o1,"inconclusive [inhibitor, full curve]",
CC(=O)Nc1c(OC(C)=O)ccc2c(C)cc(=O)oc12,"inconclusive [inhibitor, single point]",
COc1cccc(C2CC(c3cccs3)=NN2C(=O)c2ccco2)c1O (centres undefined),active: 14.1 µM,
O=S1(=O)C=C(Sc2nc3cc(Cl)ccc3o2)c2ccccc21,active: 7.94 µM,
c1ccc2c(C[C@@H]3CNCCN3CCCCC3CCCCC3)cccc2c1,"inconclusive [inhibitor, partial curve, poor fit]",
COCC(=O)Nc1cc(OC)c(Cl)cc1OC,"inconclusive [inhibitor, partial curve, poor fit]",
COc1ccccc1CNC(=O)CCS(=O)(=O)c1ccc(Cl)cc1,"inconclusive [inhibitor, single point]",
CCOC(=O)Cn1c(=O)n(Cc2ccc(OC)cc2)c(=O)c2cccnc21,"inconclusive [inhibitor, single point]",
COc1ccc(Cl)cc1C(=O)NCC(c1ccco1)N1CCCC1 (centres undefined),"inconclusive [inhibitor, partial curve]",
CCCCC(=O)Nc1ccc2oc(-c3ccncc3)nc2c1,"inconclusive [inhibitor, single point]",
O=C(CCN1CCN(C(c2ccccc2)c2ccccc2)CC1)N/N=C/c1ccc(O)cc1,"inconclusive [inhibitor, partial curve]",
O=C(Nc1ccc(C(F)(F)F)cc1)C1CCN(S(=O)(=O)c2ccc(N3CCCC3=O)cc2)CC1,"inconclusive [inhibitor, single point]",
O=S(=O)(c1ccccc1Cl)N1CCCC1c1nc(-c2ccccc2Cl)no1 (centres undefined),"inconclusive [inhibitor, single point]",
COC(=O)c1[nH]c2ccc(C)cc2c1NC(=O)CN1CCN(c2ccc(F)cc2)CC1,"inconclusive [inhibitor, partial curve]",
CCOC(=O)c1[nH]c2c(c1C)C(=O)CC(c1ccco1)C2 (centres undefined),"inconclusive [inhibitor, full curve]",
CSc1nnc(-c2cc(-c3ccc(C)cc3)nc3ccccc23)o1,"inconclusive [inhibitor, partial curve]",
COc1ccccc1-c1noc(CCC(=O)Nc2cccc(C(F)(F)F)c2)n1,"inconclusive [inhibitor, partial curve]",

Structure (SMILES),Potency,"activity change, negative = inhibition"
Cc1ccc2nc(C(F)(F)F)c(C#N)c(N)c2c1,active: 25.1 µM,
CCCCN1CNC(=S)N(CCc2ccc(OCC)c(OCC)c2)C1,"inconclusive [inhibitor, partial curve, poor fit]",
COc1ccc2c3n(nc2c1)CCN=C3c1ccc(Cl)cc1,,inactive: 27.4%
CCCC(=O)N1c2ccccc2C(=C2SC(C(=O)OC)=C(C(=O)OC)S2)C(=S)C1(C)C,,inactive: 2.74%
CCOC(=O)c1c(CS(=O)(=O)c2ccccc2)n(C)c2cc(Br)c(O)c(CN(C)C)c12,"inconclusive [inhibitor, single point]",
Cc1ccc(-c2nc(CSCC(=O)NCc3cccnc3)c(C)o2)cc1,"inconclusive [inhibitor, single point]",
O=C(CC1OC(=O)c2ccccc21)Nc1cc(Cl)ccc1N1CCOCC1 (centres undefined),"inconclusive [inhibitor, partial curve]",
CCC(=O)NC(=S)Nc1cccc(NC(=O)c2ccccc2)c1,"inconclusive [inhibitor, partial curve]",
CC(=O)C1=C(c2cccc([N+](=O)[O-])c2)N(C(C)=O)n2c(C)nnc2S1,"inconclusive [inhibitor, partial curve]",
O=C(N/N=C/c1c(F)c(F)c(F)c(F)c1F)c1ccc(Cn2cc(Br)cn2)o1,"inconclusive [inhibitor, single point]",
O=C(NC12CC3CC(CC(C3)C1)C2)c1ccco1,,inactive: -9.38%
O=C(NC(Cc1ccccc1)C(=O)O)/C(=C\c1ccco1)NC(=O)c1ccccc1 (centres undefined),,inactive: -1.8%
OCCNc1nc(Nc2ccc(Br)cc2)nc2ccccc12,"inconclusive [inhibitor, partial curve]",
Cc1ccc(NC(=S)N/N=C/c2c(Cl)cccc2Cl)c(C)c1,"inconclusive [inhibitor, full curve, poor fit]",
CCOc1ccc(/C=N/NC(=O)CN2CCSCC2)cc1,,inactive: 13.1%
COc1cc2c(cc1NS(=O)(=O)N1CCCCC1)oc1ccccc12,"inconclusive [inhibitor, single point]",
CC(C)c1ccc(N=C2NN=C(c3cccs3)CS2)cc1,"inconclusive [inhibitor, single point]",
CC(=O)Nc1ccc(S(=O)(=O)Nc2nc3ccccc3nc2Nc2ccc(O)cc2)cc1,,inactive: 13.2%
C/C(=N\NC(=O)c1ccncc1)c1c(O)n(Cc2ccccc2)c(=O)[nH]c1=O,"inconclusive [inhibitor, single point]",
CCn1c(=O)c(C(=O)CN2CCCc3ccccc32)c(N)n(Cc2ccccc2)c1=O,"inconclusive [inhibitor, single point]",
CCOCCCn1c(SCc2nc3ccccc3s2)nc2ccccc2c1=O,active: 11.2 µM,
Cc1cccc2c1-c1sc(C(=O)NCCCN3CCC(C)CC3)cc1CO2,active: 5.01 µM,
CC[C@]12c3[nH]c4ccc(Cl)cc4c3CCN1C(=O)[C@@H](CC(=O)NCCCOC)C[C@@H]2C(=O)N1CCN(C(=O)C2CC2)CC1,,inactive: -19.7%
